PubChem BioAssay AID686978 (National Center for Advancing Translational Sciences (NCATS), 2013)
Where “and” joins values, the source holds several entries; their conditions need not be identical. Equal values may be shown once. Among all 420,000 compounds or so, about 64,000 (15%) were called active. The shares of active, inactive and inconclusive entries below differ from those in the screen. The call rests on the fitted dose curve; in most records, active means well fitted inhibition curve with a large enough effect; inconclusive means small, poorly fitted or top-dose-only effect; inactive means flat fitted curve, though single readings scatter. Where the call is inconclusive, the potency comes from a doubtful curve fit.
On the % scale 0 is the no-effect control and ±100 the full control effect; potency means the concentration at half of the fitted maximal effect; tags describe the fitted curve by direction and shape.

Test: qHTS for Inhibitors of human tyrosyl-DNA phosphodiesterase 1 (TDP1): qHTS in cells in absence of CPT; further: nearly all actives have a fitted effect of over 55% in size
Conditions: DT40 Tdp1-/- hTDP1 cells, no CPT, ATP luminescence, 48 h; activity change, negative = growth inhibition: at 46.2 µM (top of the series) unless noted
Summary of the method: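 Seeded 400 DT40-hTDP1 cells/well (vehicle DMSO, no 20 nM CPT); pinned compounds; ≥48 hr at 37 °C; CellTiter-Glo luminescence as viability measure.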
With `CN(c1ccc(C(=O)Nc2ccc(S(=O)(=O)N3CCCC3)cc2)cc1)S(C)(=O)=O` the Potency was inconclusive: 13 µM [inhibitor, single point].
With `CCC(C)NS(=O)(=O)c1ccc(NC(=O)c2c(-c3ccccc3)noc2C)cc1` (centres undefined) the Potency was inconclusive: 29.1 µM [inhibitor, single point].
With `COc1cccc(CNC(=O)COC(=O)c2ccc(N3CCCC3=O)cc2)c1` the “activity change, negative = growth inhibition” value was inactive: 2.5%.
With `COc1cc2oc(=O)ccc2cc1[C@H](O)[C@@H](O)C(C)(C)O` the “activity change, negative = growth inhibition” value was inactive: -2.55%.
With `COc1ccc(C(=O)NC(=S)NC(C)(C)C)cc1Br` the Potency was active: 23.1 µM.
In the case of `Cc1cc(C(=O)NNC(=O)COc2c(C)cc(Br)cc2C)n[nH]1`, the “activity change, negative = growth inhibition” value is reported as inactive: 6.84%.
For `CCc1nc2c(OCc3cccc(Cl)c3)cccn2c1N(C)C(=O)c1ccc(OC)cc1`, the Potency was active: 16.4 µM.
For `CCOC(=O)c1c(NC(=O)c2ccc(N3C(=O)[C@@H]4[C@H](C3=O)[C@H]3C=C[C@@H]4C3)cc2)sc2c1CC(C)CC2` (some centres undefined), the Potency was active: 1.16 µM.
For `COc1ccccc1Cc1c(-c2ccc(C)cc2)nc2ccc(Br)cn12`, the Potency was active: 23.1 µM.
For `Cc1ccc(C(=O)Nc2cccc([N+](=O)[O-])c2)cc1S(=O)(=O)Nc1ccc(C(=O)O)cc1`, the “activity change, negative = growth inhibition” value was inactive: 3.02%.
For `CCN(CC(=O)Nc1ccccc1C(F)(F)F)C(=O)Cn1c(=O)cnc2ccccc21`, the “activity change, negative = growth inhibition” value was inactive: -9.06%.
With `CC1(C)C(=O)OC(c2c3ccccc3cc3ccccc23)C(C)(C)C1=O` (centres undefined) the Potency was inconclusive: 20.6 µM [inhibitor, single point].
In the case of `CCc1ccccc1N1C(=O)CC(Sc2nccc(C)n2)C1=O` (centres undefined), the Potency is reported as inconclusive: 29.1 µM [inhibitor, single point].
With `O=C(NC(Cc1ccccc1)c1nc2ccccc2[nH]1)c1cccc([N+](=O)[O-])c1` (centres undefined) the Potency was inconclusive: 29.1 µM [inhibitor, single point].
For `COc1ccc(NC(=O)N(Cc2cc3cc(OC)ccc3[nH]c2=O)CC2CCCO2)cc1` (centres undefined), the Potency was inconclusive: 25.9 µM [inhibitor, partial curve].
For `COc1ccc(-c2nn(-c3ccccc3)cc2C2NC(=O)NC(C)=C2C(=O)OC(C)C)cc1Cl` (centres undefined), the Potency was inconclusive: 18.4 µM [inhibitor, single point].
With `CC(CCc1ccccc1)NC(=O)CN1CCN(Cc2ccc(Cl)cc2)C1=O` (centres undefined) the activity change, negative = growth inhibition was inconclusive: -32.5% [inhibitor].
With `Cn1cc(C(=O)C(=O)N2CCCCC2)c2ccccc21` the “activity change, negative = growth inhibition” value was inactive: 1.96%.
With `CN(Cc1nc2ccccc2n1C)S(=O)(=O)c1ccc(Cl)cc1` the Potency was active: 25.9 µM.
With `O=C(Nc1ccccc1[N+](=O)[O-])c1ccc(S(=O)(=O)N2CCCC2)cc1` the “activity change, negative = growth inhibition” value was inactive: -28.1%.
With `CCOC(=S)SCc1cn2ccc(C)cc2n1` the Potency was inconclusive: 23.1 µM [inhibitor, single point].
In the case of `CCOC(=O)CC(NS(=O)(=O)Cc1ccccc1)c1ccc(C)cc1` (centres undefined), the “activity change, negative = growth inhibition” value is reported as inactive: -27.6%.
In the case of `COc1ccc(/C=C/C(=O)c2oc3ccc(F)cc3c2C)cc1`, the Potency is reported as inconclusive: 29.1 µM [inhibitor, single point].
With `CCCCn1c(N)c(N(CC(C)C)C(=O)C2=NN(c3cc(C)ccc3C)C(=O)CC2)c(=O)[nH]c1=O` the Potency was inconclusive: 7.31 µM [inhibitor, full curve, poor fit].
In the case of `O=C(NC1=NCCCCC1)c1cccc2ccccc12`, the “activity change, negative = growth inhibition” value is reported as inactive: 2.42%.
In the case of `COc1ccc(C2C(C#N)=C(N)Oc3n[nH]c(C)c32)cc1Cn1nc(C)c([N+](=O)[O-])c1C` (centres undefined), the Potency is reported as inconclusive: 20.6 µM [inhibitor, partial curve].
With `COc1ccc(OC)c(S(=O)(=O)NCC(c2ccco2)N2CCc3ccccc3C2)c1` (centres undefined) the Potency was inconclusive: 25.9 µM [inhibitor, single point].
In the case of `COc1ccc(S(=O)(=O)NCC2CCCO2)cc1NC(=O)c1ccccc1F` (centres undefined), the “activity change, negative = growth inhibition” value is reported as inactive: -3.68%.
With `COc1ccc(CN(C)CC(O)COC(c2ccccc2)c2ccccc2)c(OC)c1OC` (centres undefined) the Potency was inconclusive: 18.4 µM [inhibitor, single point].
With `COc1cccc(CN(C)C(=O)c2csc3c2CCCC3)c1OC` the “activity change, negative = growth inhibition” value was inactive: -23.5%.
For `CC(=O)Nc1ccc(NC(=O)C(Cc2ccccc2)NS(=O)(=O)c2ccc3c(c2)oc(=O)n3C)cc1` (centres undefined), the “activity change, negative = growth inhibition” value was inactive: 3.57%.
In the case of `NC(CCC(=O)NCS(=O)(=O)O)C(=O)O` (centres undefined), the “activity change, negative = growth inhibition” value is reported as inactive: -12.8%.
With `Cc1ccc2nc(-c3ccncc3)c(Nc3ccccc3)n2c1` the Potency was inconclusive: 20.6 µM [inhibitor, single point] and inconclusive: 12.6 µM [inhibitor, single point].
For `CCOC(=O)c1cc(-c2ccc(F)cc2)n(CCC(=O)Nc2nc3ccc(OC)cc3s2)c1C`, the Potency was active: 16.4 µM.
With `O=C(c1ccc([N+](=O)[O-])s1)N1CCc2ccccc2C1` the Potency was inconclusive: 23.1 µM [inhibitor, partial curve].
With `O=C(CSc1nc2ccccc2[nH]1)NCc1ccc2c(c1)OCO2` the “activity change, negative = growth inhibition” value was inactive: -19.3%.
For `CC(C)c1ccc(NS(=O)(=O)c2ccc3[nH]cc(C(=O)NCCc4ccccc4)c(=O)c3c2)cc1`, the Potency was inconclusive: 25.9 µM [inhibitor, single point].
For `O=S(=O)(c1ccc2ccccc2c1)N1CCc2ccccc21`, the Potency was inconclusive: 29.1 µM [inhibitor, single point].
With `CC(=O)c1ccccc1NC(=O)COC(=O)c1c(C)nn(-c2ccccc2)c1C` the Potency was active: 14.6 µM.
In the case of `COc1ccc(CNC(=O)C2CCC(=O)N(CCCN3CCCC3=O)C2)c(OC)c1` (centres undefined), the “activity change, negative = growth inhibition” value is reported as inactive: 20.6%.
With `COc1ccc(Cl)cc1Nc1nc(C)nc2c1nnn2Cc1ccccc1` the Potency was inconclusive: 13 µM [inhibitor, partial curve].
With `CCOC(=O)[C@@H]1[C@H]2COc3cc(OC)ccc3[C@H]2N2C(=O)N(c3ccc(C)cc3)C(=O)[C@@]12C` the Potency was inconclusive: 20.6 µM [inhibitor, partial curve].
With `COc1ccc(CCNC(=O)c2cc(-c3cc(C)c(C)cc3O)n[nH]2)cc1OC` the Potency was inconclusive: 18.4 µM [inhibitor, partial curve].
With `COc1ccc(NC(=O)COC(=O)c2ccc(OCc3ccccc3Cl)c(OC)c2)c(OC)c1` the Potency was inconclusive: 4.11 µM [inhibitor, full curve].
In the case of `O=C(CSc1ccc(Cl)cc1)Nc1ccccc1Oc1ccccc1`, the Potency is reported as inconclusive: 25.9 µM [inhibitor, partial curve].
For `Nc1ccn([C@@H]2O[C@H](C(=O)N[C@H](COC=O)Cc3ccccc3)[C@@H](O)[C@H]2O)c(=O)n1`, the “activity change, negative = growth inhibition” value was inactive: 3.21%.
In the case of `CCOc1ccc(S(=O)(=O)Nc2cc3c(C(=O)OC)c(COC)oc3c3ccccc23)cc1`, the Potency is reported as active: 3.66 µM.
For `COc1ccc(C(=O)CC(c2ccccc2)C2CCCCC2=O)cc1` (centres undefined), the Potency was inconclusive: 22.4 µM [inhibitor, single point].
For `COc1ccc(CN2CCC(CO)(Cc3ccccc3C(F)(F)F)CC2)c(F)c1`, the Potency was active: 18.4 µM.
For `Cc1ccc(NC(=O)CO/N=C/c2ccc(N(C)C)cc2)cc1`, the Potency was inconclusive: 18.4 µM [inhibitor, single point].
In the case of `O=C(NCCc1c[nH]c2ccccc12)OCCSS(=O)(=O)O`, the “activity change, negative = growth inhibition” value is reported as inactive: -1.55%.
In the case of `COc1ccc(S(=O)(=O)N(CC(=O)Nc2cc(Cl)ccc2C)Cc2ccccc2)cc1OC`, the Potency is reported as inconclusive: 29.1 µM [inhibitor, single point].
With `Cc1cccc(N=Nc2c(C)[nH]n(-c3ccccc3)c2=O)c1` the Potency was inconclusive: 29.1 µM [inhibitor, single point].
With `C[C@H]1CN([C@@H](C)CO)S(=O)(=O)c2ccc(C#CC3CC3)cc2O[C@@H]1CN(C)S(C)(=O)=O` the Potency was inconclusive: 29.1 µM [inhibitor, single point].
In the case of `CCn1nc(C)c2c(-c3ccccc3)cc(=O)n(C(C)C(=O)NCCc3ccc(OC)c(OC)c3)c21` (centres undefined), the Potency is reported as inconclusive: 29.1 µM [inhibitor, single point].
For `CC(C)=CCc1c(O)cc2occ(-c3ccc4c(c3)OCO4)c(=O)c2c1O`, the Potency was inconclusive: 29.1 µM [inhibitor, single point].
With `COc1ccc(OC)c(C2CC(=O)NC(SC)=C2C#N)c1` (centres undefined) the “activity change, negative = growth inhibition” value was inactive: 0.658%.
For `O=S(=O)(c1ccc(Cl)c(NC(=S)Nc2ccccc2N2CCOCC2)c1)N1CCOCC1`, the “activity change, negative = growth inhibition” value was inactive: -25%.
For `Cc1ccccc1-c1csc(C(O)c2cccnc2)n1` (centres undefined), the Potency was inconclusive: 18.4 µM [inhibitor, single point].
In the case of `CCOc1ccc(NC(=O)COc2ccc(C(=O)NCc3cccc(OC)c3)cc2OC)cc1`, the Potency is reported as inconclusive: 9.2 µM [inhibitor, partial curve].
In the case of `CCCNc1c(NS(=O)(=O)c2cccc(C#N)c2)c(=O)oc2ccccc12`, the “activity change, negative = growth inhibition” value is reported as inactive: -0.451%.
With `CCOc1cc(-c2ccc(OC(=O)c3ccc(OC)cc3)c(OC)c2)cc(=O)c2c(C)oc(C)c12` the Potency was active: 18.4 µM.
With `Nc1nnc(SC2CCCC2)s1` the Potency was inconclusive: 29.1 µM [inhibitor, single point].
In the case of `OCCCn1c(CCNc2nc(-c3ccc(F)cc3)cs2)nc2cc(C(F)(F)F)ccc21`, the Potency is reported as inconclusive: 23.1 µM [inhibitor, single point].
With `COC(=O)c1ccc2nc(-c3ccco3)c(Cc3ccc(C)cc3)n2c1` the Potency was inconclusive: 29.1 µM [inhibitor, single point].
For `Cc1cccc(N2CCN(C(c3ccc(N(C)C)cc3)c3nnnn3C(C)(C)C)CC2)c1C` (centres undefined), the Potency was inconclusive: 16.4 µM [inhibitor, partial curve].
In the case of `O=[N+]([O-])c1nn(-c2ccc3c(c2)OCCO3)n(O)c1=NC1CCCC1`, the Potency is reported as inconclusive: 23.1 µM [inhibitor, partial curve].
With `CCOc1ccc(/C=N/NC(=O)c2ccc(Cn3cc([N+](=O)[O-])cn3)o2)cc1` the “activity change, negative = growth inhibition” value was inactive: -22.7%.
For `Cc1ccc(N(CC(=O)Nc2cc(C)ccc2C)S(=O)(=O)c2c(C)noc2C)cc1`, the Potency was active: 23.1 µM.
